# In PubChem BioAssay AID588855 (National Center for Advancing Translational Sciences (NCATS), 2011):
# The whole screen tested about 410,000 compounds, of which about 5,000 (1.2%) were called active. Inconclusive results, whose numbers are uncertain, are shown with a selection of clear calls. The call rests on the fitted dose curve; in most records, active means well fitted inhibition curve with a large enough effect; inconclusive means small, poorly fitted or top-dose-only effect; inactive means no such curve, though single readings can be large or run the other way. Potencies beside an inconclusive call are fits to weak or partial responses and may not hold up.
# Assay: qHTS for Inhibitors of TGF-b; further: nearly all actives have a fitted effect of over 65% in size
# Details: HepG2 CAGA-GFP TGF-b/SMAD3 reporter, GFP fluorescence, 18 h, TGF-beta stimulated, 500 pg/mL final; series mostly up to 46.1 µM
# Summary of the method: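 Using HEPG2 CAGA-GFP reporter cells at 1000 cells/well, we pinned test compounds, stimulated with recombinant TGF-beta (500 pg/mL final) and measured total well GFP after 18 h.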
# Potency means the concentration at half of the fitted maximal effect; tags describe the fitted curve by direction and shape.
row,SMILES,Potency
1,COc1ccccc1CN1CCNC(=O)C1CC(=O)NCCC1=CCCCC1 (stereo not drawn),"inconclusive: 22.4 µM [inhibitor, single point]"
2,CC(C)CC(N)c1csc(Nc2ccc(S(C)(=O)=O)cc2)n1 (stereo not drawn),"inconclusive: 35.5 µM [inhibitor, single point]"
3,COCCN1CCn2c(nc3cc([N+](=O)[O-])ccc32)C1,"inconclusive: 3.55 µM [inhibitor, partial curve, poor fit]"
4,c1ccc(-c2cnc(-c3ccccn3)nn2)cc1,"inconclusive: 14.1 µM [inhibitor, single point]"
5,COc1cccc(-c2cc(NC=O)c3ncc(-c4ccc(F)c(Cl)c4)n3c2)c1,"inconclusive: 28.2 µM [inhibitor, single point]"
6,O=C(Cn1c(=O)oc2ccccc21)NC(=O)NCc1ccco1,"inconclusive: 2.82 µM [inhibitor, single point]"
7,Cc1ccc(-n2cc(CN(C)CCc3cn[nH]c3)c(-c3cccc(C)c3)n2)cc1,inactive
8,COc1ccc(-c2c(C#N)c(SCc3c(C)noc3C)nc3c2C(=O)CC(C)(C)C3)cc1,inactive
9,COc1ccccc1CNC(=O)Cn1cc([N+](=O)[O-])ccc1=O,inactive
10,COC(=O)CN1C(=S)N(c2ccc(OC)cc2)C(=O)/C1=C/c1ccc(OC)cc1,"inconclusive: 2.82 µM [inhibitor, partial curve]"
11,Clc1ccc(OCCCN2CCCC2)cc1Cl,inactive
12,O=C(Nc1cnc2ccccc2c1)N1CCCCC1,inactive
13,CCC1(C)Cc2ccccc2/C(=C/C(=O)N2CCCCC2)N1 (stereo not drawn),"inconclusive: 22.4 µM [inhibitor, single point]"
14,O=C(c1ccc(C#CC2(O)CCCCC2)cc1)N1CCN(C(c2ccccc2)c2ccccc2)CC1,"inconclusive: 31.6 µM [inhibitor, single point]"
15,CCn1c(=O)c([N+](=O)[O-])c(NCCc2ccccc2)c2ccccc21,"inconclusive: 35.5 µM [inhibitor, single point]"
16,Cc1cc(C)cc(OCC(=O)Nc2ccc3c4c(cccc24)CC3)c1,inactive
17,CCOC(=O)c1sc(N(Cc2ccccc2)C(=O)COC(=O)c2ccc(O)cc2)nc1C,active: 12.6 µM
18,COc1ccc(-c2nc3ccc(C)cn3c2NCc2ccc3c(c2)OCO3)cc1,inactive
19,CC(C)CO/C(=N/S(=O)(=O)c1ccccc1)c1ccccc1,"inconclusive: 4.47 µM [inhibitor, partial curve, poor fit]"
20,COc1cc(OC)c(NC(=S)Nc2cc(Cl)cc(Cl)c2)cc1Cl,"inconclusive: 35.5 µM [inhibitor, single point]"
21,COc1cc(C(=S)N2CCN(C(c3ccccc3)c3ccccc3)CC2)cc(OC)c1O,"inconclusive: 31.6 µM [inhibitor, single point]"

row,SMILES,Potency
1,COc1cccc(CNC(=O)Cn2c(=O)oc3cc(S(=O)(=O)N4CCC(C)CC4)ccc32)c1,"inconclusive: 17.8 µM [inhibitor, partial curve, poor fit]"
2,Cc1cc2c(sc3ccccc32)c(C)n1,"inconclusive: 6.31 µM [inhibitor, single point]"
3,COc1ccc(Cn2c(C(=O)O)c(CNCCc3ccccc3Cl)c3ccc(C)cc32)cc1,"inconclusive: 25.1 µM [inhibitor, single point]"
4,Cc1cc(C)cc(OCC(=O)Nc2cccc(-c3nc4ccccc4[nH]3)c2)c1,"inconclusive: 35.5 µM [inhibitor, single point]"
5,O=C(Cn1c(=O)n(-c2ccc(F)cc2)c(=O)c2sccc21)Nc1cccc(C(F)(F)F)c1,"inconclusive: 14.1 µM [inhibitor, partial curve, poor fit]"
6,O=C(NC1CCN(Cc2ccccc2)CC1)c1ccc2c(c1)[nH]c(=O)n2Cc1ccc(F)cc1,"inconclusive: 1.41 µM [inhibitor, partial curve, poor fit]"
7,C=CCN(CC=C)C(=O)c1ccccc1NC(=O)c1ccccc1C,"inconclusive: 14.1 µM [inhibitor, partial curve, poor fit]"
8,COc1cccc(/C=N/NC(=O)CN2C(=O)NC3NC(=O)NC32)c1 (stereo not drawn),"inconclusive: 6.31 µM [inhibitor, single point]"
9,CCOc1ccc(Nc2ccc([N+](=O)[O-])c3nonc23)cc1,"inconclusive: 14.1 µM [inhibitor, single point]"
10,COc1cc(NC(=O)c2cnn3c(C)cc(C)nc23)c(OC)cc1Cl,inactive
11,COc1ccc(CCNC(=O)COC(=O)/C=C/c2ccc(OC)cc2OC)cc1,"inconclusive: 1.12 µM [inhibitor, full curve, poor fit]"
12,Cc1c2cnn(CC(=O)Nc3ccc(F)cc3F)c(=O)c2c(C)n1Cc1cccc(Cl)c1,inactive
13,CC(=O)c1ccc(S(=O)(=O)N2CCN(CCOc3ccc(Br)cc3)CC2)cc1,"inconclusive: 0.631 µM [inhibitor, full curve]"
14,CCN(C(=O)C1CCN(c2nc(-c3ccc(OC)cc3)no2)CC1)c1ccccc1,"inconclusive: 35.5 µM [inhibitor, single point]"
15,CCc1cccc(NC(=O)Cn2c(=O)n(CC3CCC(C(=O)NCCc4ccccc4)CC3)c(=O)c3ccccc32)c1 (stereo not drawn),"inconclusive: 3.55 µM [inhibitor, partial curve, poor fit]"
16,O=C(Nc1ccc2oc(-c3ccncc3)nc2c1)c1ccc2c(c1)OCO2,"inconclusive: 22.4 µM [inhibitor, single point]"
17,CCOC(=O)c1cnn(CCOC(=O)C2CC2)c1NC(=O)C1CC1,inactive
18,COc1ccccc1CNC(=O)C1CCN(S(=O)(=O)c2cccc3cccnc23)CC1,"inconclusive: 35.5 µM [inhibitor, single point]"
19,O=S(=O)(/C=C/c1ccccc1)Oc1ccccc1,"inconclusive: 35.5 µM [inhibitor, partial curve, poor fit]"
20,Cc1ccc([N+](=O)[O-])cc1NC(=S)NC(=O)c1cccs1,"inconclusive: 35.5 µM [inhibitor, single point]"
21,Cc1ccccc1N(Cc1cc(=O)[nH]c2ccccc12)C(=O)C(C)C,"inconclusive: 11.2 µM [inhibitor, partial curve, poor fit]"

row,SMILES,Potency
1,O=C1C=C(c2ccc(Cl)c(C(F)(F)F)c2)C[C@@H](c2ccc(Cl)cc2)C1,active: 14.1 µM
2,Cc1cc(-c2cc(NC=O)c3ncc(-c4cccc(C(=O)NCCN(C)C)c4)n3c2)cc(C)c1O,"inconclusive: 35.5 µM [inhibitor, single point]"
3,COc1ccc(OCC(O)CNC(=O)c2ccc(Br)cc2)cc1 (stereo not drawn),"inconclusive: 2 µM [inhibitor, full curve]"
4,COc1ccc2oc(C(=O)N3CCN(S(=O)(=O)c4cccc([N+](=O)[O-])c4)CC3)c(C)c2c1,inactive
5,COc1ccc(S(=O)(=O)N2CCCCCC2)cc1NC(=O)CN1C(=O)NC(C)(c2ccc(C)cc2)C1=O (stereo not drawn),"inconclusive: 35.5 µM [inhibitor, single point]"
6,COCCNC(=O)CN1C(=O)COc2ccc(Cl)cc21,"inconclusive: 35.5 µM [inhibitor, single point]"
7,O=C(NCc1ccc(F)cc1)C1CCN(C(=O)c2cnn(-c3ccccc3)c2-n2cccc2)CC1,"inconclusive: 31.6 µM [inhibitor, partial curve, poor fit]"
8,CCCc1cc(=O)oc2cc(C)cc(OCC(=O)NCc3ccncc3)c12,inactive
9,C=C(C)CNC(=S)NNC(=O)CCn1c2cc(Cl)ccc2c2ccc(Cl)cc21,"inconclusive: 28.2 µM [inhibitor, single point]"
10,CCn1c(=S)[nH]c2scc(-c3cccs3)c2c1=O,"inconclusive: 35.5 µM [inhibitor, single point]"
11,CCOc1cc(C(=O)NCc2ccc3c(c2)CCN3C(=O)CC)cc(OCC)c1OCC,"inconclusive: 10 µM [inhibitor, partial curve]"
12,C=CCNc1oc(/C=C/c2ccccc2)nc1C#N,"inconclusive: 35.5 µM [inhibitor, single point]"
13,CCN(CC)C(=O)COc1coc(CN2CCN(c3ccc(F)cc3)CC2)cc1=O,inactive
14,C=C1C(=O)C2=CC1CCC(=O)C1(C)CCC(OC(C)=O)C(C)(C)C1CC2O (stereo not drawn),active: 2.82 µM
15,CCN1CCN(Cc2ccc(NC(=O)c3ccc(C)c(NC(=O)c4cncc(-c5cccs5)c4)c3)cc2C(F)(F)F)CC1,"inconclusive: 35.5 µM [inhibitor, single point]"
16,COc1ccc(Cl)cc1NC(=S)NCCSc1ccc(C)cc1,"inconclusive: 8.91 µM [inhibitor, partial curve, poor fit]"
17,C#CCOCCOCCOCCNc1nc(N2CCN(C(=O)C([C@@H](C)CC)n3cc(C(N)CC(C)C)nn3)CC2)nc(N2CCN(C(=O)[C@H](CCC(=O)O)n3cc(C(N)Cc4ccc(O)cc4)nn3)CC2)n1 (stereo partly drawn),"inconclusive: 3.55 µM [inhibitor, single point]"
18,CC1(C(=O)NCc2cccc(Cl)c2)Cc2c(-c3ccc4c(c3)OCO4)ccnc2O1 (stereo not drawn),"inconclusive: 35.5 µM [inhibitor, single point]"
19,Cc1ccc(-n2c(=O)cc(N3CCc4ccccc4C3)[nH]c2=O)cc1,"inconclusive: 28.2 µM [inhibitor, single point]"
20,CC(C)OP(=O)(OC(C)C)/C(C=O)=N\Nc1ccc([N+](=O)[O-])cc1,"inconclusive: 35.5 µM [inhibitor, single point]"
21,CCn1cc(/C=C(\NC(=O)c2ccc(OC)cc2)C(=O)N2CCOCC2)c2ccccc21,"inconclusive: 6.31 µM [inhibitor, single point]"
